Among all 350,000 compounds or so, about 9,900 (2.8%) were called active. The shares of active, inactive and inconclusive entries below differ from those in the screen. Calls come from the whole dose curve; as a rule, active = well fitted activation curve with a large enough effect; inconclusive = small, poorly fitted or top-dose-only effect; inactive = no such curve, though single readings can be large or run the other way. No potency is given beside an inconclusive call; the fits are too rough.
Test: A quantitative high throughput screen for small molecules that induce DNA re-replication in MCF 10a normal breast cells. For activity, positive = re-replication: % of control where 0% means no effect. Note: nearly all actives have a fitted effect of over 50% in size.
Settings: MCF 10A DNA re-replication, Hoechst nuclear intensity, 48 h; activity, positive = re-replication: at 46.1 µM (top of the series)
In the case of `CCCC(=O)Nc1c(C(=O)OCC)[nH]c2ccccc12`, the Potency is reported as inconclusive [activator, single point]. In the case of `O=C(COc1c(Br)cc(Br)cc1Br)N/N=C/c1ccco1`, the Potency is reported as inconclusive [activator, single point]. For `Cc1ccc(CSc2nnc(-c3ccncc3)o2)c(C)c1`, the Potency was inconclusive [activator, single point]. With `CCOc1ncccc1C(=O)N1CCN(C(c2ccccc2)c2ccccc2)CC1` the Potency was inconclusive [activator, single point]. In the case of `Cc1nc2sc(C(c3ccccc3)N3CC(C)OC(C)C3)c(O)n2n1` (configuration not stated), the Potency is reported as inconclusive [activator, single point]. In the case of `CCOc1ccc(N2C(=O)CC(NCC#N)C2=O)cc1` (configuration not stated), the “activity, positive = re-replication” value is reported as inactive: -2.43%. With `CC1(C)C(=O)OC(C(=O)c2ccc(C(C)(C)C)cc2)C(C)(C)C1=O` (configuration not stated) the Potency was inconclusive [activator, single point]. In the case of `O=C(Nc1ccccc1N1CCCCC1)C1CCN(C(=O)c2ccc(Cl)cc2)CC1`, the Potency is reported as inconclusive [activator, partial curve, poor fit]. With `COc1ccc(-c2c(C(F)(F)F)oc3cc(OCC(=O)Nc4ccccc4C(F)(F)F)ccc3c2=O)cc1OC` the Potency was active: 8.2 µM. With `O=C(/C=C/c1cccc(F)c1)Nc1ccc(S(=O)(=O)N2CCOCC2)cc1` the “activity, positive = re-replication” value was inactive: 6.44%. With `COc1ccc(CN2C(=O)c3cccnc3C2=O)cc1S(=O)(=O)N1CCCC(C)C1` (configuration not stated) the “activity, positive = re-replication” value was inactive: 0.878%. In the case of `OC(CNc1nc(-c2cccnc2)nc2ccccc12)c1ccccc1` (configuration not stated), the “activity, positive = re-replication” value is reported as inactive: 21.4%. In the case of `Cc1ccc(-c2noc(CCC(=O)Nc3ccc4c(c3)OCO4)n2)cc1`, the Potency is reported as inconclusive [activator, partial curve]. With `CC1CN(C(=O)COC(=O)c2ccc(Cl)c(N)c2)CC(C)O1` (configuration not stated) the Potency was inconclusive [activator, partial curve, poor fit]. For `COc1cccc(-c2nn(-c3ccccc3)cc2C(=O)Nc2nccs2)c1`, the Potency was inconclusive [activator, single point]. In the case of `Cc1ccc(C(=O)Nc2nc(-c3ccccn3)cs2)cc1S(=O)(=O)N1CCOCC1`, the Potency is reported as active: 20.6 µM. In the case of `Fc1ccc(-c2csc(NC3=NCCC3)n2)cc1`, the Potency is reported as inconclusive [activator, single point]. In the case of `Cc1cc(C)nc(NC(=O)/C=C/c2ccc3c(c2)OCO3)c1`, the Potency is reported as inconclusive [activator, partial curve, poor fit]. For `CCC(=O)OCOc1ccc(/C=C2/CCC(CN(C)C)C2=O)cc1` (configuration not stated), the Potency was inconclusive [activator, full curve]. With `COc1ccc(-c2oc3ncn4nc(COc5ccccc5)nc4c3c2-c2ccc(OC)cc2)cc1` the “activity, positive = re-replication” value was inactive: 0.802%. In the case of `CN(C(=O)CN1C(=O)S/C(=C\c2cccc(Cl)c2)C1=O)C1CCS(=O)(=O)C1` (configuration not stated), the Potency is reported as active: 23.1 µM. For `COc1ccc(S(=O)(=O)N2c3ccccc3OCC2CC(=O)O)cc1` (configuration not stated), the Potency was inconclusive [activator, single point]. In the case of `CSCC[C@H](NC(=O)OC(C)(C)C)C(=O)N1CCC(C(=O)N[C@@H](Cc2c[nH]c3ccccc23)C(=O)O)CC1`, the Potency is reported as inconclusive [activator, partial curve, poor fit]. With `Cc1csc2nc(O)c(C(=O)NCCC3=CCCCC3)c(=O)n12` the Potency was inconclusive [activator, partial curve, poor fit]. For `N=C1SC(c2ccccc2)C(=O)N1c1ncc(Cc2ccccc2Cl)s1` (configuration not stated), the Potency was inconclusive [activator, partial curve]. With `C=CC[C@H](CC(=O)N(CCO)Cc1ccccc1)C(=O)NC[C@H](OC(=O)[C@@H](CC=C)Cc1ccc(F)cc1)c1ccccc1` the Potency was inconclusive [activator, single point]. For `CCC(=O)c1ccc(/C=C/c2nc3ccccc3n2C)o1`, the Potency was active: 8.2 µM. For `Cc1ccc(C(=O)N/C(=C\c2sccc2C)C(=O)NCCCN2CCOCC2)cc1`, the “activity, positive = re-replication” value was inactive: -4.51%. With `CCN(CC(=O)Nc1ccc2c(c1)OCCO2)CC(=O)Nc1ccc2c(c1)OCO2` the “activity, positive = re-replication” value was inactive: -8.52%. For `CCc1ccccc1N(CC(=O)NC(C)C)C(=O)CCC(=O)Nc1nccs1`, the Potency was inconclusive [activator, single point]. For `CC(=O)Nc1ccc(Nc2cc(C)nc3c(-c4ccccc4)cnn23)cc1`, the Potency was inconclusive [activator, partial curve, poor fit]. In the case of `COc1ccc(CN(C)C(=O)CCl)cc1`, the Potency is reported as inconclusive [activator, single point]. For `C[C@@]12C(=O)Nc3ccc(F)cc3C(=O)N1[C@H]1c3ccccc3OC[C@@H]1[C@@H]2c1ccccc1`, the “activity, positive = re-replication” value was inactive: 16.3%. For `CC(C)CCNCC(O)CON=C1c2ccccc2-c2ccccc21` (configuration not stated), the Potency was inconclusive [activator, full curve, poor fit]. For `Cc1ccc(C)c(-c2nnc(OCC(=O)Nc3cc(C)on3)c3ccccc23)c1`, the Potency was inconclusive [activator, partial curve, poor fit]. With `Cn1cc(C(=O)N/N=C/c2cccs2)c2ccccc21` the “activity, positive = re-replication” value was inactive: -3.16%. With `CC(Oc1ccc2oc3ccccc3c2c1)C(=O)NC12CC3CC(CC(C3)C1)C2` (configuration not stated) the Potency was active: 16.4 µM. In the case of `CCN(CC)C(=O)c1sc(NC(=O)Cc2cccs2)c(C#N)c1C`, the “activity, positive = re-replication” value is reported as inactive: 0.901%. For `CN(C)CCCNC(=O)c1ccc(CN(c2ccccc2)S(C)(=O)=O)cc1`, the Potency was inconclusive [activator, single point]. With `CC1(c2ccccc2)NC(=O)N(CC(=O)Nc2ccc(S(=O)(=O)Nc3ncccn3)cc2)C1=O` (configuration not stated) the Potency was inconclusive [activator, partial curve, poor fit]. For `CC(=O)Nc1ccc(Nc2ncc([N+](=O)[O-])c(Nc3ccc(NC(C)=O)cc3)n2)cc1`, the Potency was inconclusive [activator, partial curve, poor fit]. In the case of `NNC(=O)c1csc(COc2cc(Cl)cc(Cl)c2)n1`, the Potency is reported as inconclusive [activator, full curve].

— PubChem BioAssay AID624296 (National Center for Advancing Translational Sciences (NCATS), 2012)
Potency is the fitted concentration of half-maximal effect; tags give direction and shape of the fitted curve.
